From PubChem BioAssay AID2675 (National Center for Advancing Translational Sciences (NCATS), 2010)
In all, about 280,000 compounds went through this assay and about 100 (0.036%) were called active. The shares of active, inactive and inconclusive entries below differ from those in the screen. The call rests on the fitted dose curve; in most records, active means well fitted inhibition curve with a large enough effect in the signal ratio, with a control signal flat (not every such curve was filed as active); inconclusive means small, poorly fitted or top-dose-only effect, or effect the other way, or a change in a side signal; inactive means no such curve, though single readings can be large or run the other way; the % refers to the signal ratio. Potencies of inconclusive entries are doubtful fits and often do not repeat. “Side channel” marks fits to a control or component signal instead of the main read-out.

target: Muscleblind-like protein 1 (Homo sapiens) (UniProt Q9NR56); assay: qHTS Assay for Inhibitors of MBNL1-poly(CUG) RNA binding; details: TR-FRET MBNL1-His/biotin-(CUG)12 binding, 665/545 ratio; activity change, negative = inhibition: at 57.5 µM (top of the series)
Sequence of UniProt Q9NR56 (Q9NR56 whole entry, looked up): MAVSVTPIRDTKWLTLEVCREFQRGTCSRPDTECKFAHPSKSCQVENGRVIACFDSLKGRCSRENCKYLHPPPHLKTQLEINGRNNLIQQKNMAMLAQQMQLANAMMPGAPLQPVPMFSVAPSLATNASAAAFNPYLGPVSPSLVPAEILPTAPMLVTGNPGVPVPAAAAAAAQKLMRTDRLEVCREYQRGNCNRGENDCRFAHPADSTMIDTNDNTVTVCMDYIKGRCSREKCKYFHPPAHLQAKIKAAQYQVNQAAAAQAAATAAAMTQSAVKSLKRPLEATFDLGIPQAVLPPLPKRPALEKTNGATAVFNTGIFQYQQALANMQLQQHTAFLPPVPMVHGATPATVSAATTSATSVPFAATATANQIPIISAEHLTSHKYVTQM
Outline: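 Compound titration spanned 92 nM–58 uM against the MBNL1-His/biotin-(CUG)12 complex. After 60 min at room temperature with 5 nM streptavidin-XL665 and 0.055 ng/ul terbium anti-His, ratiometric 665/545 nm emission (Ex 340 nm) normalized to controls.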
On the % scale 0 is the no-effect control and ±100 the full control effect; potency means the concentration at half of the fitted maximal effect; tags describe the fitted curve by direction and shape or compound fluorescence and quenching.

Row | Structure (SMILES) | activity change, negative = inhibition | Potency
1 | COc1ccc(N2C(=O)C(C)C(Cc3ccc(C)cc3)C2=O)cc1 (stereo not given) | inactive: 3.26% | 
2 | COc1ccc(Cc2nnc(SCc3ccc([N+](=O)[O-])cc3)o2)cc1 |  | inconclusive: 31.6 µM [quencher, side channel, single point]
3 | O=[N+]([O-])c1cc2c(cc1/C=N/n1cnnc1)OCO2 |  | inconclusive: 14.1 µM [quencher, side channel, partial curve]
4 | C=CCNC(=O)N1CCc2[nH]c3ccc(F)cc3c2C1 | inactive: 0.522% | 
5 | COc1ccc2c(c1)-c1c(ssc1=S)C(C)(C)N2 |  | inconclusive: 10 µM [quencher, side channel, partial curve]
6 | CCCOc1ccc(/C=N/NC(=O)c2nnn(-c3nonc3N)c2-c2cccs2)cc1OC |  | inconclusive: 22.4 µM [quencher, side channel, single point]
7 | COc1cc(NC(=O)c2c(F)cccc2F)nc(OC)n1 | inactive: -17.7% | 
8 | Cc1ccc(C(=O)N/N=C/c2c(O)ccc3ccccc23)cn1 | inactive: 14.5% | 
9 | O=C(Nc1cc(F)cc(F)c1)c1ccc(NCCCN2CCCCCC2)c([N+](=O)[O-])c1 |  | inconclusive: 15.8 µM [quencher, side channel, partial curve]
10 | COc1cc(C2C(C#N)=C(N)OC3=C2C(=O)CCC3)c([N+](=O)[O-])cc1OC (stereo not given) |  | inconclusive: 7.94 µM [quencher, side channel, partial curve]
11 | Cc1ccc(C(=O)c2c3ccc([N+](=O)[O-])cc3[n+]([O-])n2CCC(N)=O)cc1 |  | inconclusive: 7.94 µM [quencher, side channel, partial curve]
12 | C/C(=N\NC(=O)CCc1c(C)n[nH]c1C)c1ccc([N+](=O)[O-])cc1 |  | inconclusive: 12.6 µM [quencher, side channel, partial curve]
13 | O=C(CCc1nc2ccccc2c(=O)[nH]1)OCC(=O)c1cccc(Cl)c1 |  | inconclusive: 0.447 µM [fluorescent, side channel, full curve, poor fit]
14 | CCO[C@@H]1OC(C(=O)N2CCN(Cc3ccc4c(c3)OCO4)CC2)=C[C@H](C2CC2)[C@H]1CCCO | inactive: -3.25% | 
15 | COc1cc(C2C(C(=O)c3ccc(C)o3)=C(O)C(=O)N2c2cc(C)on2)cc(OC)c1OC (stereo not given) |  | inconclusive: 11.2 µM [quencher, side channel, partial curve]
16 | CC(=O)Nc1cccc(Oc2ccc([N+](=O)[O-])cc2Cl)c1 |  | inconclusive: 22.4 µM [quencher, side channel, partial curve]
17 | O=[N+]([O-])c1ccc2c(c1)nc(CO)n2Cc1ccccc1 |  | inconclusive: 15.8 µM [quencher, side channel, partial curve]
18 | CSc1nnc2c(n1)OC(c1ccccn1)N(C(C)=O)c1ccccc1-2 (stereo not given) |  | inconclusive: 31.6 µM [quencher, single point]
19 | O=[N+]([O-])c1cccc(-c2nnc(C3CC3)o2)c1 |  | inconclusive: 7.94 µM [quencher, side channel, partial curve]
20 | CCC(=O)NC(=S)N1CCN(c2ccc([N+](=O)[O-])cc2Cl)CC1 |  | inconclusive: 7.08 µM [quencher, side channel, partial curve]

Row | Structure (SMILES) | activity change, negative = inhibition | Potency
21 | O=C(c1ccc([N+](=O)[O-])s1)N1CCN(c2cccc(Cl)c2)CC1 |  | inconclusive: 5.62 µM [quencher, side channel, partial curve]
22 | O=C(Nc1ccon1)c1cc2ccccc2oc1=O |  | inconclusive: 2.51 µM [quencher, partial curve, poor fit]
23 | OCCC1CN(Cc2cccc(-c3ccco3)c2)CCN1Cc1ccsc1 (stereo not given) | inactive: -0.904% | 
24 | COC(=O)c1cc2nc(-c3ccccc3)cc(C(F)(F)F)n2n1 |  | inconclusive: 0.447 µM [quencher, side channel, full curve, poor fit]
25 | COc1ccc2sc3ccccc3c(=O)c2c1 |  | inconclusive: 28.2 µM [quencher, side channel, partial curve]
26 | Cc1cc2nc(N3C(=O)CNC3=S)sc2cc1C | inactive: 39.2% | 
27 | CCn1c(O)c(N=NC2=NC(=O)CS2)c2cc(C)ccc21 |  | inconclusive: 3.98 µM [quencher, side channel, full curve]
28 | COc1cc(OC)cc(C(=O)N/N=C/c2ccc(OC)c(COc3ccc(F)cc3)c2)c1 | inactive: -4.74% | 
29 | O=C(Nc1ccc(F)cc1F)C1CCCN1S(=O)(=O)c1ccc(-c2ccc(=O)[nH]n2)s1 (stereo not given) |  | inconclusive: 12.6 µM [quencher, partial curve]
30 | O=[N+]([O-])c1ccc(NNC(=S)Nc2ccc(F)cc2)cc1 |  | inconclusive: 0.447 µM [quencher, side channel, full curve, poor fit]
31 | CC1CCCN(CCOCCSc2ccccc2)C1 (stereo not given) | inactive: -11.5% | 
32 | O=C1C(C=NCCCN2CCCC2=O)=C(O)c2ccccc21 |  | inconclusive: 20 µM [quencher, side channel, partial curve]
33 | CCOc1ccccc1NS(=O)(=O)c1cccc2nsnc12 |  | inconclusive: 14.1 µM [quencher, side channel, partial curve]
34 | COc1ccc(OC)c(NC(=O)C2CCCN2S(=O)(=O)c2cccc3nsnc23)c1 (stereo not given) |  | inconclusive: 6.31 µM [quencher, side channel, partial curve]
35 | O=C(C1=C[C@H](c2coc3ccccc3c2=O)C[C@H](OCc2ccc(CO)cc2)O1)N1CCN(Cc2ccc3c(c2)OCO3)CC1 | inactive: 9.8% | 
36 | Cc1ccc(N2C(=O)c3cccc4c(N)ccc(c34)C2=O)c2cccnc12 |  | inconclusive: 3.16 µM [quencher, side channel, full curve]
37 | O=C(Nc1ccon1)c1ccc2c(c1)OCO2 | inactive: -1.44% | 
38 | O=C(NCc1cccnc1)c1ccc([N+](=O)[O-])o1 |  | inconclusive: 15.8 µM [quencher, side channel, partial curve]
39 | O=C(Cn1nc2ccccc2n1)N/N=C/c1cc(Cl)cc([N+](=O)[O-])c1O | inactive: 10% | 
40 | CCOC(=O)C1(Cc2cccc(Cl)c2)CCCN(C(=O)c2cc(C)on2)C1 (stereo not given) | inactive: -1.89% | 
